The results in this text go back to paper PMC4336329 (PLoS ONE, 2015).

About 2,200 (0.71%) of roughly 310,000 compounds showed an effect of 50% or more. Effects have a minus sign here. Some of the results follow.

The target in the experiment is human ether-à-go-go-related gene (hERG) potassium channel (human, UniProt Q12809). The experiment is described as follows: primary screen, population patch clamp on CHO cells stably expressing hERG.
human ether-à-go-go-related gene (hERG) potassium channel, sequence (Q12809 whole entry, looked up): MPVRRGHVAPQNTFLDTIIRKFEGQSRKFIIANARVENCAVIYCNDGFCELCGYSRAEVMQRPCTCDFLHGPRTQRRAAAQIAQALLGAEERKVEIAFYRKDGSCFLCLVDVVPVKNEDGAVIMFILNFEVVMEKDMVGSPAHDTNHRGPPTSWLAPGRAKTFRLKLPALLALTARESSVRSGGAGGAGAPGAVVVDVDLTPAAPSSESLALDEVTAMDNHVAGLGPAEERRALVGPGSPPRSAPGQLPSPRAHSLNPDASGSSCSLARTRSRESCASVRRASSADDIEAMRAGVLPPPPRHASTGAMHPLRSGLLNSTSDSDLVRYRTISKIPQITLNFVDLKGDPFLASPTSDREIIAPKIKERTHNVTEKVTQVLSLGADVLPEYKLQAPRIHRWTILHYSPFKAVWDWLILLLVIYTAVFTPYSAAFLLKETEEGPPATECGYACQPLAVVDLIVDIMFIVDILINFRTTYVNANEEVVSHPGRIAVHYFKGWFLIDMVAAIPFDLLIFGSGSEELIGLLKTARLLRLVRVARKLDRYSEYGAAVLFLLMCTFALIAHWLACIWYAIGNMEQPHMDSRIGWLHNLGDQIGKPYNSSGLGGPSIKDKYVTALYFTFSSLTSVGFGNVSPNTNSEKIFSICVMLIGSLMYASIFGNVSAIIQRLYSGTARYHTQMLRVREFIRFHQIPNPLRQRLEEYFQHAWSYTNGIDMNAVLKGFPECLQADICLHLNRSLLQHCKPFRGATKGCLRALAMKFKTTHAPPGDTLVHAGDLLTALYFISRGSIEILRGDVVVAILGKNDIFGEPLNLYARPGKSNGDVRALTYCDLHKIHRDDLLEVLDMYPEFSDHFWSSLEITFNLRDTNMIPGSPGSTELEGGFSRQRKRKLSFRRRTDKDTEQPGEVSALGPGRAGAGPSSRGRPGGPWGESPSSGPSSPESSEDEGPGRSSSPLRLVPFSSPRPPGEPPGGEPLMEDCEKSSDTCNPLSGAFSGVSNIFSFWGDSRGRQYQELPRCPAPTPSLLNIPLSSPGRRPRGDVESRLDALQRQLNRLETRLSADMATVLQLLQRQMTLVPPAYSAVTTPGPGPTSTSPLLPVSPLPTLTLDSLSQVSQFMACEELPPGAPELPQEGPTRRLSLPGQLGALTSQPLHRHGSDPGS
For `Cc1cc2cc(CNC(=O)c3ccc(S(=O)(=O)N4CCCCC4)cc3)ccc2[nH]1`, the “hERG current change (%, negative = inhibition) at 1uM” value was 4.59%.
As for `Cc1ccc(NC(=O)CSCC(=O)NNC(=O)c2nn(C)c(=O)c3ccccc23)cc1`, the figure is -7.39%; as for `Cc1ccn2c(CNCCn3nc(C)cc3C)c(C(=O)N3CCCCCC3)nc2c1`, 8.17%.
The result for `CCn1cc(SCC(=O)NCC2CCCO2)c2ccccc21` (centres unmarked) reads 16.9%; that for `CNC(=S)N1N=C(c2ccccc2)CC1c1ccc(OC)c(OC)c1` (centres unmarked), -6.47%; that for `COc1ccc(C(C)(C)C)cc1NC(=O)CCc1c(C)noc1C`, 4.05%.
The result for `COc1ccc(NC(=S)Nc2ccccc2OC)c(OC)c1` reads 12.7%; that for `CC1(C)CC(=O)C2=C(C1)N(c1ccccc1)C(=O)CC2c1ccsc1` (centres unmarked), -8.57%; that for `Cc1cccc(CCNS(=O)(=O)c2ccc3c(c2)oc(=O)n3C)c1`, 0.767%.
Turning to `O=C(CCCN1C(=O)c2ccccc2C1=O)Nc1cccc(S(=O)(=O)NC2=NCCC2)c1`, the “hERG current change (%, negative = inhibition) at 1uM” value came out at 15.1%.
As for `CCCNS(=O)(=O)c1ccc(OCC(=O)N2CCN(c3ccccc3)CC2)cc1`, the figure is 8.51%; as for `C/C(=N\NC(=O)c1cccnc1)c1ccccc1`, 11.9%; as for `COC(=O)c1ccc(S(=O)(=O)N2C3CCC2CC(NC(=O)NC2CCCCC2)C3)cc1` (centres unmarked), 7.39%.
Turning to `Cn1c2c(c(=O)n(C)c1=O)C(C(F)(F)F)(C(F)(F)F)N=C(CCC1CCCCC1)N2`, the “hERG current change (%, negative = inhibition) at 1uM” value was 10.2%.
In the case of `CC(C)(C)c1cc(CN2CCCCC2)cc(C(C)(C)C)c1O`, the “hERG current change (%, negative = inhibition) at 1uM” value was -16.6%.
For `Cc1ccnc(NC(=O)c2ccc(NC(=O)c3ccco3)cc2)c1`, the “hERG current change (%, negative = inhibition) at 1uM” value is on record as 4.21%.
With `COc1cccc(/C=N/NC(=O)CN(CCc2ccccc2)S(=O)(=O)c2ccc(NC(C)=O)cc2)c1`, the “hERG current change (%, negative = inhibition) at 1uM” value came out at 11.6%.
Regarding `O=C1CC(SCCO)C(=O)N1c1ccc(Oc2ccccc2)cc1` (centres unmarked), the “hERG current change (%, negative = inhibition) at 1uM” value was determined as 3.96%.
In the case of `O=C(CN1CCC(NC(=O)C2CC2)CC1)Nc1cccc(F)c1`, the “hERG current change (%, negative = inhibition) at 1uM” value stood at 8.47%.
In the case of `Cn1c(=O)c(C(=O)NNC(=O)c2ccccc2F)c(O)c2ccccc21`, the “hERG current change (%, negative = inhibition) at 1uM” value amounted to 21%.
As for `Fc1ccc(SCCc2ccccn2)cc1`, the figure is 14%.
Consider `NS(=O)(=O)c1cc(C2(O)NC(=O)c3ccccc32)ccc1Cl` (centres unmarked), for which the “hERG current change (%, negative = inhibition) at 1uM” value came out at 8.65%.
Take `CC(=O)Nc1ccc(Nc2nc(C)nc3c2nnn3Cc2ccccc2Cl)cc1`: the “hERG current change (%, negative = inhibition) at 1uM” value is listed as -1.49%.
As for `CCOC(=O)C#CC(CCc1ccccc1)OS(N)(=O)=O` (centres unmarked), the figure is 16.2%; as for `CCOC(=O)CN1C(=O)S/C(=C/c2ccc(O)c([N+](=O)[O-])c2)C1=O`, 9.65%; as for `CN(c1cccc(NC(=O)CN(c2cccc(Cl)c2)S(=O)(=O)c2ccc(Cl)cc2)c1)S(C)(=O)=O`, 7.54%.
As for `COc1ccc(-c2cc(C(=O)Nc3c(C)n(C)n(-c4ccccc4)c3=O)c3ccccc3n2)c(OC)c1`, the figure is 16.8%; as for `Cc1c2c(c(C)n1C)C(C(=O)NC1CCCCC1)N(Cc1ccccc1)C2=O` (centres unmarked), 6.93%; as for `CCn1nc(CC(C)C)cc1C(=O)N1CCCC(Nc2ccc(OC)cc2)C1` (centres unmarked), 19.1%.
The result for `COc1ccc(C(=O)N/C(=C\c2cn(C)c3ccccc23)C(=O)NCCCN2CCOCC2)cc1OC` reads 18.5%; that for `COc1ccc(C(C(=O)NC2CCCC2)N(C(=O)c2snc(C(N)=O)c2N)c2cccc(O)c2)cc1` (centres unmarked), 14.5%; that for `CCc1ccc(NC(=O)c2cccnc2)cc1`, 10%.
Take `CC(C)n1cnnc1SCC(=O)NCC(=O)Nc1ccc(F)cc1`: the “hERG current change (%, negative = inhibition) at 1uM” value was 15.4%.
As for `O=C(NCC1CCCCC1)c1cccc(S(=O)(=O)N2CCCC2)c1`, the figure is 9.27%; as for `Cc1ccc(CNC(=O)C2CC(=O)N(C3CCCCCCC3)C2)cc1` (centres unmarked), 9.51%; as for `Cc1ccccc1OC1CCN(C(=O)C2CCC(=O)N(C3CCCC3)C2)CC1` (centres unmarked), 10.1%.
For `COC(=O)C1=C(C)N(Cc2ccccc2)C(=NCc2cccc(C(F)(F)F)c2)N[C@H]1c1cccc(F)c1`, the “hERG current change (%, negative = inhibition) at 1uM” value stood at 9.67%.
As for `Br.CC[C@H]1CN2CCC1C[C@H]2[C@H](O)c1ccnc2ccc(OC)cc12.O` (some centres unmarked), the figure is -7.59%; as for `CCOC(=O)C(C)Oc1ncnc2cccc(F)c12` (centres unmarked), 9.04%.
As for `CN(C1CCCCC1)S(=O)(=O)Cc1ccccc1`, the figure is -3.15%; as for `COc1ccccc1N1CCN(Cc2cccc(Br)c2)CC1.O=C(O)C(=O)O`, 13.7%; as for `Cc1cnc(NC(=O)c2c(-c3ccccc3)noc2C)s1`, 7.4%.
The result for `Cc1cc(OCC(=O)Nc2nnc(C3CC3)s2)ccc1[N+](=O)[O-]` reads 9.15%; that for `CCCn1nc2cc(C(=O)N(CC)c3ccc(OC)cc3)ccc2c1OCC`, 17.4%.
